# In PubChem BioAssay AID686978 (National Center for Advancing Translational Sciences (NCATS), 2013):
# The whole screen tested about 420,000 compounds, of which about 64,000 (15%) were called active. The shares of active, inactive and inconclusive entries below differ from those in the screen. Calls come from the whole dose curve; as a rule, active = well fitted inhibition curve with a large enough effect; inconclusive = small, poorly fitted or top-dose-only effect; inactive = flat fitted curve, though single readings scatter. Potencies of inconclusive entries are left out as doubtful fits.
# Assay: qHTS for Inhibitors of human tyrosyl-DNA phosphodiesterase 1 (TDP1): qHTS in cells in absence of CPT; note: nearly all actives have a fitted effect of over 55% in size
# Conditions: DT40 Tdp1-/- hTDP1 cells, no CPT, ATP luminescence, 48 h; activity change, negative = growth inhibition: at 46.2 µM (top of the series) unless noted
# Summary of the method: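 Growth kinetics read by CellTiter-Glo luminescence after ≥48 hr at 37 °C. Cells: DT40 Tdp1-/- stably carrying human TDP1, 400 per well, compound exposure in the absence of CPT (DMSO vehicle).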
# % is set by controls: 0 for no effect and ±100 for the full control effect; potency is the fitted concentration of half-maximal effect; tags give direction and shape of the fitted curve.
SMILES,Potency,"activity change, negative = growth inhibition"
CC(C)(C)C(=O)Nc1ccccc1N1CCN(C(=O)c2ccc(Cl)cc2)CC1,"inconclusive [inhibitor, single point]",–
COc1cc2ccccc2cc1C(=O)N1CCN(c2nc3c(C)cc(C)cc3s2)CC1,active: 18.4 µM,–
CCOc1cc(N2CCOCC2)c(OCC)cc1NC(=O)c1cccc(N(C)C)c1,active: 20.6 µM,–
O=C1OC(N2C(=O)CC[C@H]2C(=O)Nc2ccc3c(c2)OCO3)c2ccccc21 (stereo partly specified),–,inactive: 7.06%
CC(=O)C(=Nc1ccc(Cl)cc1Cl)NNc1cccc(Cl)c1,"inconclusive [inhibitor, partial curve]",–
O=C(N/N=C/c1ccc2c(c1)OCO2)c1ccc2c(c1)OCCO2,"inconclusive [inhibitor, single point]",–
CNC(=O)c1cc(Oc2ccc(NC(=O)c3[nH]c(-c4ccccc4)c4c3C(=O)N(C)C4=O)cc2)ccn1,–,inconclusive: -30.3% [inhibitor]
S=C(NCCSCc1ccc(Cl)c(Cl)c1)Nc1ccccc1,"inconclusive [inhibitor, single point]",–
CCOC(=O)C1(C)CCCN(C(=O)C(c2ccccc2)c2ccccc2)C1 (stereo unspecified),"inconclusive [inhibitor, single point]",–
Cc1cccc(NC(=O)CSc2nnc(-c3n[nH]c4ccccc34)o2)c1,"inconclusive [inhibitor, single point]",–
COc1ccc(S(=O)(=O)N2CCCCC2)cc1NC(=O)CNc1ccccc1C(C)=O,"inconclusive [inhibitor, single point]",–
O=C(O)[C@H]1CN(C/C=C/P(=O)(O)O)CCN1,–,inactive: 1.35%
Cc1cccc(NC(=O)C2CCN(S(=O)(=O)c3cccc4nsnc34)CC2)c1,inactive,–
Fc1cccc(Cc2c(-c3ccccc3)nc3ccc(Br)cn23)c1,"inconclusive [inhibitor, single point]",–
O=C1[C@H]2[C@@H](c3ccccc3)N[C@]3(CCCN(Cc4ccc(C(F)(F)F)cc4)C3=O)[C@H]2C(=O)N1Cc1ccccc1,"inconclusive [inhibitor, single point]",–
Cc1cccc(OCC(=O)NNC(=O)CSc2ncc(C#N)c(N)n2)c1,–,inactive: 15.3%
CC(c1ccco1)N(C(=O)Nc1ccccc1)C1CCCCC1 (stereo unspecified),"inconclusive [inhibitor, partial curve]",–
O=C(N=C1c2ccccc2CN1c1ccc(F)c(F)c1)c1cccnc1,"inconclusive [inhibitor, single point]",–
CCn1nc(NS(=O)(=O)c2cccc3nonc23)c2cc3ccc(C)cc3nc21,–,inactive: 1.04%
O=C(O)c1ccc2c(c1)C(=O)N(CCc1ccccc1)C2=O,–,inactive: 3.59%
O=C(NCc1ccccc1)C1CCC(=O)N(CCN2CCOCC2)C1 (stereo unspecified),–,inactive: 18.5%
CCC(C)Sc1ccc([C@@H]2[C@@H]3C(=O)N(C)C(=O)[C@@H]3[C@]3(C(=O)OC)CCCCN23)cc1OC (stereo partly specified),active: 18.4 µM,–
O=C(NN=Cc1ccc2c(c1)OCO2)C1CC1,–,inactive: -3.02%
COc1ccc(N(C(=O)CNC(=O)c2ccco2)C(C(=O)NC2CCCC2)c2ccc(C)o2)cc1 (stereo unspecified),–,inactive: 5.49%

SMILES,Potency,"activity change, negative = growth inhibition"
Cc1nn(Cc2ccccc2Cl)c(C)c1NC(=O)CCCn1nc([N+](=O)[O-])c(Cl)c1C,"inconclusive [inhibitor, partial curve]",–
Cc1ccc2nc(-c3ccccc3O)c(Nc3ccccc3C)n2c1,–,inactive: -19.8%
CC1=CC(C2CC(=O)N(c3ccc(C)cc3)C2=O)CC2C(=O)N(c3ccc(C)cc3)C(=O)C12 (stereo unspecified),"inconclusive [inhibitor, single point]",–
Cc1ccc(Cn2c(=N)c(C(=O)NCCN3CCOCC3)cc3c(=O)n4ccccc4nc32)cc1,"inconclusive [inhibitor, single point]",–
COc1ccc(-c2ccc(CN3C(C)C(=O)N(Cc4cn(CCC5OCCO5)nn4)CCS3(=O)=O)cc2)cc1 (stereo unspecified),active: 23.1 µM,–
CC(C)c1ccc(NC(=O)C2CC(=O)N(C3CCCC3)C2)cc1 (stereo unspecified),–,inactive: -10.9%
COc1cc2c(cc1OC)CN(S(=O)(=O)c1ccc(Cl)nc1)CC2,–,inactive: -11.7%
CC1CCN(C(=O)Cn2cc(SCc3cccc(F)c3)c3ccccc32)CC1,"inconclusive [inhibitor, single point]",–
Nc1nc2c3ccccc3nc(C3CC3)n2n1,–,inconclusive: -32.5% [inhibitor]
Cn1nc(C(F)(F)F)c(-c2ccc(F)cc2)c1NC(=O)CSCC(=O)O,–,inactive: 4.22%
COc1ccccc1OCc1ccc(C(=O)NCC(C)C)o1,–,inactive: -23.5%
CCOC(=O)c1nc(NCc2ccccc2F)c2ccccc2n1,"inconclusive [inhibitor, single point]",–
O=C(CSc1nc2cc(Cl)ccc2s1)NC1CCCc2ccccc21 (stereo unspecified),"inconclusive [inhibitor, single point]",–
CCN(CC)S(=O)(=O)c1cc(NC(=O)CN2C(=O)NC3(CCCc4ccccc43)C2=O)ccc1C (stereo unspecified),"inconclusive [inhibitor, single point]",–
Cc1ccc(CN2c3ccccc3-c3nc(SCC(=O)Nc4c(C)cc(C)cc4C)ncc3S2(=O)=O)cc1,"inconclusive [inhibitor, single point]",–
CCCCC(C(=O)NC1CCCC1)N(C(=O)c1snc(C(N)=O)c1N)c1ccc(C)cc1 (stereo unspecified),"inconclusive [inhibitor, single point]",–
CCOc1ccccc1C(=O)N1CC(=O)Nc2ccc(C)cc2C1c1ccccc1 (stereo unspecified),active: 23.1 µM,–
COC(=O)c1sccc1N(C)S(C)(=O)=O,–,inactive: -3.65%
Cc1nn(C)cc1NC(=O)CCSc1nc(-c2ccco2)cc(C(F)(F)F)n1,"inconclusive [inhibitor, single point]",–
Cn1c(CNC(=O)c2ccc(Cl)cc2)nnc1SCC(=O)N1CCOCC1,–,inactive: -10.3%
Cc1ccccc1NC1=NC(=S)N(c2ccccc2)C12CCCCC2,"inconclusive [inhibitor, single point]",–
CC1(C)CC(=O)C(Sc2ccccc2[N+](=O)[O-])=C(O)C1,"inconclusive [inhibitor, single point]",–
Cc1nonc1NC(=O)CSc1nnc(-c2ccoc2C)n1-c1cccc(Cl)c1,"inconclusive [inhibitor, single point]",–
Cc1ccc(Cl)c2c1=NC(=O)C=2c1[nH]c(=S)[nH]c1O,–,inactive: 5.07%

SMILES,Potency,"activity change, negative = growth inhibition"
Cc1c(C(=O)NN)sc(-c2ccccc2)c1C#N,"inconclusive [inhibitor, single point]",–
Cn1cnc([N+](=O)[O-])c1Oc1ccc2ccccc2c1,"inconclusive [inhibitor, partial curve, poor fit]",–
COc1ccc(/C=C2\SC(=S)N(CCCC(=O)N3CCCCC3CCO)C2=O)cc1 (stereo unspecified),"inconclusive [inhibitor, single point]",–
CCNC(=O)C1(C)CCCN1C(=O)c1ccc(F)c(Cl)c1 (stereo unspecified),"inconclusive [inhibitor, single point]",–
C=CCOn1c(=O)c(-c2cc3ccccc3o2)[n+]([O-])c2ccccc21,active: 18.4 µM,–
CC1CCCC(C)N1C(=O)COC(=O)c1cc([N+](=O)[O-])ccc1N1CCOCC1 (stereo unspecified),"inconclusive [inhibitor, single point]",–
COC(=O)[C@@]1(Cc2ccc(F)cc2)[C@H]2c3cc(C(=O)N(C)C)n(CCF)c3C[C@H]2CN1C(=O)c1ccccc1,"inconclusive [inhibitor, single point]",–
COc1ccc(C(=O)NC(C)c2cc(OC)c(OC)cc2Br)cc1 (stereo unspecified),"inconclusive [inhibitor, partial curve]",–
COc1cccc(NC(=O)CN(C)C(=O)CSc2ncnc3sc(C)c(C)c23)c1,"inconclusive [inhibitor, single point]",–
CCN(CCO)c1nc(NCc2ccccc2)c2cnn(C)c2n1,"inconclusive [inhibitor, partial curve]",–
COc1ccc(-c2ccc(CCC(=O)O)n2-c2ccc(O)cc2)cc1,–,inactive: -9.04%
O=c1c2ccccc2cnn1Cc1n[nH]c(=S)n1-c1ccccc1,–,inactive: -16.4%
COc1ccc(NC(=O)C(CC(=O)O)Cc2ccc(Cl)cc2)cc1 (stereo unspecified),–,inactive: 15.3%
O=C(CNc1ccccc1)N/N=C/c1c(O)ccc2ccccc12,active: 6.51 µM,–
CCN1C(=O)[C@H]2[C@H]3CN=C(SCC4CC4)N3[C@@](Cc3ccccc3)(C(=O)OC)[C@H]2C1=O,"inconclusive [inhibitor, single point]",–
COc1ccc(C2=NN(C(=O)CCCC(=O)O)C(c3cn(-c4ccccc4)nc3-c3ccccc3)C2)cc1 (stereo unspecified),–,inconclusive: -33.1% [inhibitor]
COc1ccc(NC(=O)CSc2nc3c(c(=O)n2C)SCC3)cc1OC,–,inactive: -9.52%
Cc1ccc(-c2nc(CS(=O)(=O)CC(=O)N3CCCCCC3)c(C)o2)cc1,"inconclusive [inhibitor, single point]",–
COc1cccc(C(=O)Nc2cccc(SC)c2)c1,"inconclusive [inhibitor, partial curve]",–
Cc1nn2c(=O)cc(COc3ccc(/C=C(\C#N)C(=O)Nc4ccccc4)cc3Cl)nc2s1,active: 20.6 µM,–
Cc1cc(C)cc(NC(=O)N2CCC(c3nc4ccccc4o3)CC2)c1,–,inactive: -26.8%
Cc1c(NC(=O)c2cccc(NS(C)(=O)=O)c2)c(=O)n(-c2ccccc2)n1C,–,inactive: 26.8%
CCOc1ccc(NC(=S)N2CCC(C(=O)c3ccc(OC)cc3)CC2)cc1,active: 18.4 µM,–
